# Laboratory results published in PubChem BioAssay AID504466 (National Center for Advancing Translational Sciences (NCATS), 2011).
# Out of some 330,000 compounds screened, about 4,200 (1.3%) were called active. The shares of active, inactive and inconclusive entries below differ from those in the screen. The call rests on the fitted dose curve; in most records, active means well fitted activation curve with a large enough effect; inconclusive means small, poorly fitted or top-dose-only effect; inactive means no such curve, though single readings can be large or run the other way. Potencies of inconclusive entries are doubtful fits and often do not repeat.
# Assay: qHTS screen for small molecules that induce genotoxicity in human embryonic kidney (HEK293T) cells expressing luciferase-tagged ELG1; further: nearly all actives have a fitted effect of over 60% in size
# Conditions: HEK293T ELG1-luciferase reporter, luminescence, 16 h; series mostly up to 46 µM
# Summary of the method: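 Luminescence read-out: rising ELG1-luciferase signal, reflecting elevated ELG1 protein under genetic stress, flags genotoxic compounds. Cells were treated for 16 hr at 37 °C before ONE-Glo detection.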
# Potency means the concentration at half of the fitted maximal effect; tags describe the fitted curve by direction and shape.
row,SMILES,Potency
1,CC(C)C(=O)NNc1nc2ccccc2s1,active: 18.4 µM
2,C/C(=N\Nc1ccc(C(=O)O)cc1)c1ccc(Br)cc1,"inconclusive: 0.259 µM [activator, full curve]"
3,CCOC(=O)NC1(NC(C)C)Oc2ccccc2O1,inactive
4,O=C(CSC(=S)N1CCCCC1)N1N=CCC1c1ccccc1 (centres undefined),"inconclusive: 20.6 µM [activator, single point]"
5,COc1ccc(OC)c(-c2oc3ccccc3c(=O)c2O)c1,"inconclusive: 29.1 µM [activator, partial curve, poor fit]"
6,Cc1ccc(-n2c(C)cc(/C=C3/SC(=O)N(CC(=O)N4CCOCC4)C3=O)c2C)nc1,"inconclusive: 20.6 µM [activator, partial curve, poor fit]"
7,Cc1ccsc1C(=O)NNC(=O)C1C2C=CC(C2)C1C(=O)O (centres undefined),"inconclusive: 32.6 µM [activator, partial curve, poor fit]"
8,Cc1cc(/C=C(/C#N)c2nc3ccccc3[nH]2)c(C)n1-c1ccccc1C(=O)O,inactive
9,Oc1ccc(Br)cc1-c1ccnn1-c1ccccc1,inactive
10,CN(C(=O)CSc1n[nH]c(-c2cccs2)n1)C1CCS(=O)(=O)C1 (centres undefined),inactive
11,COc1ccc(-c2nc(CS(=O)CC(=O)NC(C)CCc3ccccc3)c(C)o2)cc1OC (centres undefined),inactive
12,COc1ccc(N/N=C(\C#N)C(=N)N2CCOCC2)cc1,active: 18.3 µM
13,O=C(CN1CCCc2ccccc21)N/N=C/c1ccc(O)cc1O,active: 20.6 µM
14,Cc1ccc(C(=O)Nc2ccc(C(=O)O)cc2NC(=O)c2ccc(C)cc2)cc1,"inconclusive: 20.6 µM [activator, partial curve, poor fit]"
15,c1ccc(CSc2nnc(NC3=NCCCCC3)s2)cc1,"inconclusive: 18.4 µM [activator, partial curve]"
16,O=C(CSc1nnc(NC(=O)C2CC2)s1)NCc1ccco1,inactive
17,Cc1cc(Oc2ccc(=O)[nH]n2)nc(Cl)n1,"inconclusive: 20.6 µM [activator, single point]"
18,COc1ccc(CNC(=O)Cn2c(=O)n(CC(=O)N3CCCCC3)c(=O)c3sccc32)cc1,inactive
19,Cc1cccc(/C(N)=N/OC(=O)c2ccccc2Cl)c1,"inconclusive: 2.06 µM [activator, partial curve]"
20,N=c1oc2cc(O)ccc2cc1C(=O)Nc1ccc(Cl)cc1,"inconclusive: 2.31 µM [activator, partial curve, poor fit]"
21,N/C(=N\N=C\c1ccc(O)cc1)c1nonc1N,"inconclusive: 8.2 µM [activator, partial curve]"
22,O=C(CN1C(=O)C2C3C=CC(C3)C2C1=O)Nc1ccc2c(c1)OCCO2 (centres undefined),"inconclusive: 14.6 µM [activator, partial curve, poor fit]"
23,COc1ccc(NC(=O)NNC(=O)c2ccc(-c3ccccc3)cc2)cc1,"inconclusive: 23.1 µM [activator, single point]"
24,CC/C(=N\NC(=O)c1csc(C)c1C)c1cccs1,"inconclusive: 8.2 µM [activator, partial curve]"
25,C=CCOc1c(CNc2cccc(C(=O)O)c2)cccc1OC,"inconclusive: 2.31 µM [activator, full curve]"

row,SMILES,Potency
1,Cc1cccc2[nH]c(-c3ccc(NC(=O)c4ccco4)cc3)nc12,"inconclusive: 2.31 µM [activator, full curve, poor fit]"
2,COc1ccc(-c2noc(-c3ccc(C)cc3)n2)cc1,active: 3.66 µM
3,Cc1nc(NC(=O)c2oc3ccccc3c2C)sc1C(=O)N(C)C,"inconclusive: 9.2 µM [activator, partial curve, poor fit]"
4,Oc1c(Cl)cc(Cl)cc1/C=C/c1ccc2cccc(O)c2n1,inactive
5,O=c1c2cc(-c3ccccc3)sc2nc2n1N=C(c1cccs1)CS2,"inconclusive: 2.31 µM [activator, partial curve]"
6,CCOc1ccc(/C=N/NC(=O)c2ccoc2C)cc1OC,active: 18.3 µM
7,Cc1ccc(C)c(N2C(=N)S/C(=C\c3ccc(-c4ccccc4C(=O)O)o3)C2=O)c1,inactive
8,O=C(NCCC(=O)N1CCc2ccccc21)c1ccco1,"inconclusive: 20.6 µM [activator, single point]"
9,COc1ccc(-c2cc3c(=O)n(CC(=O)NCCCN4CCN(Cc5ccccc5)CC4)ncn3n2)cc1,"inconclusive: 16.4 µM [activator, partial curve, poor fit]"
10,O=C(CSc1nnc(Cc2ccccc2)o1)c1ccccc1,"inconclusive: 23.1 µM [activator, partial curve, poor fit]"
11,CNC(=O)NC(=O)CSc1nnc(-c2ccco2)n1Cc1ccccc1,inactive
12,CCOC(=O)CCSc1nc(C)c2ccccc2n1,"inconclusive: 32.6 µM [activator, partial curve, poor fit]"
13,COc1ccc(Nc2oc(-c3ccc(OC)cc3)nc2C#N)cc1,"inconclusive: 11.6 µM [activator, partial curve]"
14,Cc1[nH]n(-c2cccc(Cl)c2)c(=O)c1C=NCC(C)C,active: 20.6 µM
15,CCCOc1ccc(-c2nnc(-c3ccco3)o2)cc1,"inconclusive: 0.58 µM [activator, full curve, poor fit]"
16,O=C(N/N=C/C(Cl)=C/c1ccccc1)c1ccccn1,"inconclusive: 11.6 µM [activator, partial curve]"
17,CN(C)CCN(C(=O)c1ccc(Br)s1)c1nc2cc3c(cc2s1)OCCO3,"inconclusive: 16.4 µM [activator, partial curve, poor fit]"
18,CC(C)Cc1ccc(C(C)NC(=O)c2ccc(=O)[nH]c2)cc1 (centres undefined),inactive
19,O=[N+]([O-])c1cccc(N(CC2CO2)S(=O)(=O)c2ccccc2)c1 (centres undefined),inactive
20,O=C(Nc1ccc2ccccc2c1)c1cccnc1,"inconclusive: 6.51 µM [activator, partial curve]"
21,CCc1sc(C(=O)Nc2cccnc2)cc1Br,"inconclusive: 10.3 µM [activator, partial curve, poor fit]"
22,CCOc1ccc(C(CC(=O)O)NC(=O)COc2ccccc2OC)cc1OC (centres undefined),inactive
23,Cc1ccc(C)c(N2CCN(C(=O)Cc3ccc(-n4c(=O)[nH]c5ccsc5c4=O)cc3)CC2)c1,inactive
24,O=C1CC(N2CCN(c3ccc(F)cc3)CC2)C(=O)N1c1ccc2c(c1)OCO2 (centres undefined),inactive
25,C/C(=C\C(=O)c1ccccc1)Nc1ccc2c(c1)OCO2,"inconclusive: 2.59 µM [activator, full curve]"

row,SMILES,Potency
1,Cc1cc(C)c(S(=O)(=O)N2CCN(c3ccccn3)CC2)c(C)c1,inactive
2,C/C(=N\N1C(=O)c2ccccc2NC1c1ccco1)c1ccccc1O (centres undefined),"inconclusive: 2.06 µM [activator, full curve]"
3,COc1c(C(=O)NNC(=O)c2ccccc2Cl)csc1Br,"inconclusive: 20.6 µM [activator, single point]"
4,Oc1[nH]c2ccccc2c1C=Nc1ccccc1,"inconclusive: 16.4 µM [activator, partial curve, poor fit]"
5,O=C(CSc1nnc(NC(=O)c2ccccc2)s1)NCC1CCCO1 (centres undefined),"inconclusive: 5.17 µM [activator, full curve]"
6,O=C(N/N=C/c1cc(Br)ccc1O)c1cccc(N2CCCC2=O)c1,"inconclusive: 29.1 µM [activator, single point]"
7,Cc1ccc(C)n1-c1ccc(C(=O)NCC2CCCO2)cc1 (centres undefined),"inconclusive: 23.1 µM [activator, single point]"
8,CC(C)(C)c1ccc(C(=O)N/N=C/c2ccccn2)cc1,"inconclusive: 29.1 µM [activator, single point]"
9,CC(C)=CC(=O)Nc1nnc(C(C)C)s1,"inconclusive: 9.2 µM [activator, partial curve, poor fit]"
10,Cc1ccc(-n2nc3ccc(NC(=O)/C=C/c4ccco4)cc3n2)cc1,"inconclusive: 14.6 µM [activator, partial curve, poor fit]"
11,COc1ccc(C(=O)NNC(=S)NC(=O)c2ccccc2)cc1,"inconclusive: 29.1 µM [activator, single point]"
12,Cc1ccc(NC(=O)c2cc(-c3cccs3)on2)cc1C,"inconclusive: 18.3 µM [activator, single point]"
13,CC(C)(C)c1nnc2sc(SCC(=O)c3ccc4c(c3)OCCO4)nn2c1=O,"inconclusive: 31.6 µM [activator, single point]"
14,Cc1cc(N)n(-c2ccc3ccccc3c2)n1,"inconclusive: 18.4 µM [activator, partial curve, poor fit]"
15,Cc1ccc(-c2nc3ccccc3[nH]2)cc1N,active: 1.64 µM
16,O=C(Nc1ccc(Cl)cc1)Nc1ccc(Cl)c(Cl)c1,inactive
17,O=C(COc1ccccc1F)Nc1ccc2c(c1)OCCO2,active: 10.3 µM
18,O=C(NCc1ccco1)c1cc(-c2ccccc2)on1,active: 18.4 µM
19,N/C(=N\N=C\c1ccc(O)c(O)c1)c1nonc1N,"inconclusive: 20.6 µM [activator, single point]"
20,Cc1cc(/C=C2\SC(=S)NC2=O)c(C)n1-c1ccccc1,"inconclusive: 2.06 µM [activator, full curve]"
21,N/C(Cc1cccs1)=N\OC(=O)COc1ccccc1Cl,active: 23.1 µM
22,Cc1nn(-c2ccccc2)c(C)c1C(=O)NCc1ccc(S(N)(=O)=O)cc1,inactive
23,COc1ccc2[nH]c(=O)c3c(c2c1)OC(C)(C)C=C3,inactive
24,CN(C)c1ccc(C(=O)Nc2nc3c(s2)CCCC3)cc1,"inconclusive: 0.58 µM [activator, partial curve, poor fit]"
